Earlier results on 26 sequences are cited in article PMC11006913.

Common to all, as to details: PBM; conditions not shown; double strand, one strand shown; scale: upbm affinity estimate (log intensity, higher = more binding, comparable within an allelic series)
The target in data set [1] is HOXD13 I297V (Homo sapiens) (UniProt P35453).
The target in data set [2] is HOXD13 I322L (Homo sapiens) (UniProt P35453).
The target in data set [3] is HOXD13 N298S (Homo sapiens) (UniProt P35453).
Data set [4] deals with HOXD13 Q325K (Homo sapiens) (UniProt P35453).
In data set [5] the target is HOXD13 Q325R (Homo sapiens) (UniProt P35453).
Data set [6] addresses HOXD13 R306W (Homo sapiens) (UniProt P35453).
Data set [7] deals with HOXD13 S316C (Homo sapiens) (UniProt P35453).
In data set [8] the target is NKX2-5 K183E (Homo sapiens) (UniProt P52952).
Data set [9] deals with NKX2-5 R161P (Homo sapiens) (UniProt P52952).
The target of data set [10] is NKX2-5 R190C (Homo sapiens) (UniProt P52952).
The target in the next data set is ISX (Homo sapiens) (UniProt Q2M1V0).
The target in another data set is ISX R83Q (Homo sapiens) (UniProt Q2M1V0).
In data set [11] the target is PITX2 L100Q (Homo sapiens) (UniProt Q99697).
Data set [12] addresses PITX2 R108H (Homo sapiens) (UniProt Q99697).
The target in data set [13] is PITX2 R130W (Homo sapiens) (UniProt Q99697).
For data set [14], the target named is PITX2 T114P (Homo sapiens) (UniProt Q99697).
In the next data set the target is T1, PBX4 (Homo sapiens) (UniProt Q9BYU1).
T1 sequence: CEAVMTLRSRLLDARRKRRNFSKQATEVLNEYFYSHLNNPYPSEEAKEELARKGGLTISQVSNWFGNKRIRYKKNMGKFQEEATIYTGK

The target of data set [15] is T2, PBX4 R215Q (Homo sapiens) (UniProt Q9BYU1).
T2 sequence: T1 sequence with R19Q

Data set [16] has as its target PROP1 R112Q (Homo sapiens) (UniProt O75360).
In data set [17] the target is PROP1 R99Q (Homo sapiens) (UniProt O75360).

Where a chain is given by its changes, count along the chain named. The list shows a part of the results.

Turning to CCTCGCCG [8-mer CCTCGCCG], the binding signal was 9.57 in data set [1]; 9.37 in data set [2]; 9.44 in [3]; 9.44 in data set [4]; 9.48 in data set [5]; 9.37 in [6]. The binding signal is 9.39 in [7], 10.1 in data set [8], 10.2 in data set [9] and 10.1 in [10].

Regarding ATTACGAG [8-mer ATTACGAG], the binding signal in [1] was 12.2; in data set [2], 12.4; in data set [3], 12.4; in data set [4], 10.7; in data set [5], 11; in [6], 11.1. Further, the binding signal in data set [7] is 12.

Regarding ACTTTTTA [8-mer ACTTTTTA], the binding signal in data set [1] is 11.3; in data set [2] it was 11; in [3], 11.4; in data set [4] it was 10.8; in data set [5], 11; in [6] it was 10.6. Further, the binding signal in data set [7] is 11.1.

With ACAATAAA [8-mer ACAATAAA], the binding signal was 12.5 in data set [1]; 11.3 in data set [2]; 12.8 in data set [3]; 11.1 in [4]; 11.7 in data set [5]; 11.9 in [6]. For the same sequence, the binding signal in [7] is 12.5.

With AGGGAGGC [8-mer AGGGAGGC], the binding signal was 9.38 in [1]; 9.33 in data set [2]; 9.35 in data set [3]; 9.5 in [4]; 9.22 in [5]; 9.3 in data set [6]. The binding signal is 9.33 in data set [7]; 9.71 with ISX (Homo sapiens); 9.68 with ISX R83Q (Homo sapiens); 9.91 in data set [8]; 9.96 in [9]; 9.9 in data set [10].

Turning to AGGGCGGA [8-mer AGGGCGGA], the binding signal in [1] was 9.3; in [2], 9.3; in data set [3], 9.25; in data set [4] it was 9.3; in data set [5], 9.17; in data set [6] it was 9.21. For the same sequence, the binding signal is 9.27 in data set [7]; 8.4 in data set [11]; 8.07 in data set [12]; 7.92 in [13]; 8.08 in [14].

As to CCGTGCCG [8-mer CCGTGCCG], the binding signal in data set [1] is 9.37; in data set [2], 9.53; in data set [3], 9.49; in data set [4], 9.53; in data set [5], 9.45; in data set [6], 9.54. In addition, the binding signal in [7] is 9.45; in data set [11], 8.03; in [12], 8; in [13] it was 8.03; in data set [14], 8.04.

Take GCCTAGGC [8-mer GCCTAGGC]: the binding signal in data set [1] is 9.41; in [2] it was 9.45; in data set [3] it was 9.42; in data set [4], 9.89; in [5], 9.55; in data set [6], 9.57. The binding signal was 9.52 in [7]; 9.93 with ISX (Homo sapiens); 9.82 in the data set with ISX R83Q (Homo sapiens); 9.72 with PBX4 (Homo sapiens); 9.7 in [15].

For the sequence CGGCGGCA [8-mer CGGCGGCA], the binding signal in [1] was 9.32; in data set [2] it was 9.2; in [3], 9.19; in data set [4] it was 9.32; in [5] it was 9.35; in data set [6] it was 9.4. The figures for the binding signal in [7], in data set [16] and in data set [17] were 9.33, 10.8 and 10.9, respectively.

For the sequence TAACTATA [8-mer TAACTATA], the binding signal is 11.7 in [1]; 11.3 in data set [2]; 11.8 in data set [3]; 11 in data set [4]; 11.2 in data set [5]; 11 in data set [6]. The binding signal is 11.4 in data set [7] and 11.9 in data set [16].

Take AGTGATAT [8-mer AGTGATAT]: the binding signal is 11 in data set [1]; 10.6 in data set [2]; 11.1 in data set [3]; 10.9 in data set [4]; 11.1 in [5]; 10.5 in data set [6]. Further, in data set [7], the binding signal was 10.8.

For CTGGGGCC [8-mer CTGGGGCC], the binding signal in [1] is 9.5; in data set [2] it was 9.44; in data set [3], 9.43; in data set [4] it was 9.46; in data set [5], 9.41; in data set [6], 9.38. Moreover, the binding signal was 9.45 in data set [7]; 8.25 in [11]; 7.93 in data set [12]; 7.75 in data set [13]; 8.01 in [14].

As to CGCCCCGC [8-mer CGCCCCGC], the binding signal in [1] is 9.44; in data set [2] it was 9.52; in data set [3] it was 9.37; in [4], 9.57; in data set [5], 9.42; in [6], 9.45. Moreover, the binding signal was 9.46 in data set [7]; 8.38 in data set [11]; 8.21 in data set [12]; 7.77 in [13]; 8.14 in data set [14].

As to ATTTACTA [8-mer ATTTACTA], in [2], the binding signal is 11.8.

Regarding CCTTTAAA [8-mer CCTTTAAA], in data set [2], the binding signal was 11.8.

CTACTTTA [8-mer CTACTTTA]: the figures for the binding signal in [1], in data set [3] and in [5] were 11, 11.1 and 11, respectively.

Take ATATAAAC [8-mer ATATAAAC]: the binding signal in data set [1] is 12.2; in [3] it was 12.4; in [4] it was 12.3; in [5], 12.6; in [6] it was 11.8; in [7], 12.1.

As to ACTGTAAA [8-mer ACTGTAAA], the binding signal in [2] was 11.9.

For ATAGTCAA [8-mer ATAGTCAA], the binding signal is 10.9 in data set [1]; 10.7 in data set [2]; 10.9 in data set [3]; 10.3 in data set [6]; 10.7 in data set [7].

Take CCCTTTTA [8-mer CCCTTTTA]: the binding signal in [1] was 11; in data set [2], 10.9; in data set [3], 11.1; in [5] it was 10.9.

On to ATAAAACA [8-mer ATAAAACA], for which the binding signal in [1] is 12.3; in [3], 12.4; in [4] it was 12.2; in data set [5] it was 12.3; in data set [6], 11.7; in data set [7], 12.2.

Turning to GTAAAACA [8-mer GTAAAACA], the binding signal was 11.5 in data set [1]; 11.5 in [2]; 11.7 in data set [3]; 10.9 in data set [5]; 10.8 in data set [6]; 11.3 in [7].

Turning to CAGTAAAC [8-mer CAGTAAAC], the binding signal in [2] was 11.9.

Regarding ATTTAACG [8-mer ATTTAACG], in data set [2], the binding signal is 11.8.

Turning to ACCTTTTA [8-mer ACCTTTTA], the binding signal in data set [1] is 11.2; in data set [2], 11; in data set [3] it was 11.3; in data set [5] it was 11; in [7] it was 11.1.

As to AGAACATA [8-mer AGAACATA], the binding signal in data set [1] was 10.8; in [4], 10.5; in data set [5], 10.7; in data set [6] it was 10.4; in [7] it was 10.6.
